We go through 20 compounds from article PMC10075517, “Design, synthesis and biological evaluation of novel histone deacetylase (HDAC) inhibitors derived from β-elemene scaffold” (Journal of Enzyme Inhibition and Medicinal Chemistry, 2023).

The test system of one data set is WSU-DLCL-2 cells. As to the kind of experiment: In vitro anti-proliferative assay (CCK8), WSU-DLCL-2. The note with it: Homo sapiens, WSUDLCL2, 72 h, read-out: IC50 WSU-DLCL-2.
The test system of another data set is K562 cells. As to the kind of experiment: In vitro anti-proliferative assay (CCK8), K562. Particulars: Homo sapiens, K562, 72 h, read-out: IC50 K562.
The next data set has as its system HEL cells. As to the kind of experiment: In vitro anti-proliferative assay (CCK8), HEL. Particulars: Homo sapiens, 72 h, read-out: IC50 HEL.
The target of the next data set is T1, HDAC6 (Homo sapiens, UniProt Q9UBN7).
T1 sequence (Q9UBN7 1-1215): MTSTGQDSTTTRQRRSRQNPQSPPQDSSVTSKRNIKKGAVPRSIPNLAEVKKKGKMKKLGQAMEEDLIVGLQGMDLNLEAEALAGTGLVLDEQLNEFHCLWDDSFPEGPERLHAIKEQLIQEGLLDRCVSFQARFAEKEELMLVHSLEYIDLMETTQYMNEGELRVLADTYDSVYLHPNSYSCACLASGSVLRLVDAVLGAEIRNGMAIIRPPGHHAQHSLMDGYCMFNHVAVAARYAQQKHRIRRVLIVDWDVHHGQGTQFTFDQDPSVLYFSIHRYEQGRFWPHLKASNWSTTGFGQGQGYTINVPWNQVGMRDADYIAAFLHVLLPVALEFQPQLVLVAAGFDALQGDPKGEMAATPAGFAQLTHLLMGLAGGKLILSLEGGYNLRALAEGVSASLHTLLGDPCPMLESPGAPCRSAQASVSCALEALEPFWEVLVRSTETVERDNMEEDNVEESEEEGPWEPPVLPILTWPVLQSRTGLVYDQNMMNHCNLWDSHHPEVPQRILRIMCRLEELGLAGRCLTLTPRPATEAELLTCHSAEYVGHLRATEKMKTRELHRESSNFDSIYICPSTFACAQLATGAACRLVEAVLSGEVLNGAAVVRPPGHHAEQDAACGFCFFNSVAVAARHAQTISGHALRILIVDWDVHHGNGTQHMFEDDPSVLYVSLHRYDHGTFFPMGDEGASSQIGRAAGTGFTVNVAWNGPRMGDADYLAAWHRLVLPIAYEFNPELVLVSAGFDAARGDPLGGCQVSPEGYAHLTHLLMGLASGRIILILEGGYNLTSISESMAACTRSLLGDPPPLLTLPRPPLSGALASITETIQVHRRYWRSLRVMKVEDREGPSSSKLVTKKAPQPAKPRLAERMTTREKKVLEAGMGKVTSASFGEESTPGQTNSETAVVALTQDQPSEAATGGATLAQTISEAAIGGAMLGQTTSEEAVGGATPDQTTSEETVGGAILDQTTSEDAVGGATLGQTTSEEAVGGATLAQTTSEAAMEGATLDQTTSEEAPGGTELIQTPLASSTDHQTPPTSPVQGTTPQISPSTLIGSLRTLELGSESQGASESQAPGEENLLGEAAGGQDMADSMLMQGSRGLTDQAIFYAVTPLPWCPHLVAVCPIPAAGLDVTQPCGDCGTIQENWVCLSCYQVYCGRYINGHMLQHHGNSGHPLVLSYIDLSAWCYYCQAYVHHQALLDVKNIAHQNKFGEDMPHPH
The data set can be described thus: biochemical.

The next data set addresses HDAC1 (Homo sapiens, UniProt Q13547). As to the kind of experiment: biochemical.

As a reminder, the IC50 is the midpoint of a concentration-inhibition curve. Usually melting point stands for the temperature of the solid-liquid transition.

Structures are written as SMILES. Where only a bound is given, the exact number is not on record here.

HDAC1, sequence (Q13547 whole entry): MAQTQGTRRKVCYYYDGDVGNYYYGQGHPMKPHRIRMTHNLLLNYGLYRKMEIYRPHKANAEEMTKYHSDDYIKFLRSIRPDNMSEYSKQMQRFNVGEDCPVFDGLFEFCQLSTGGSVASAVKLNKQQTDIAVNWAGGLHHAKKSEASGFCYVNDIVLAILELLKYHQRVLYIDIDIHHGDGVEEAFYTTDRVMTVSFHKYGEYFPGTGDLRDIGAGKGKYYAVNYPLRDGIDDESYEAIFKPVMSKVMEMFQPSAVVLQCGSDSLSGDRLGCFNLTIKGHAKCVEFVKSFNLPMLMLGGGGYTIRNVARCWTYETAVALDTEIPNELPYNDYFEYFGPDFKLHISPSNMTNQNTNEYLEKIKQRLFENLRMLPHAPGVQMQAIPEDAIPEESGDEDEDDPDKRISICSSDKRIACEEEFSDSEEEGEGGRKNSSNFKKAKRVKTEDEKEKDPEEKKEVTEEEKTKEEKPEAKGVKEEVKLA

As to `C=CC1(C)CCC(C(=C)C)CC1C(=C)C` (stereo not drawn) [Compound 1, β-Elemene], the IC50 in the data set on WSU-DLCL-2 cells, in the data set on K562 cells and with HEL cells was over 200000 nM in each case.
With `C=C[C@]1(C)CC[C@@H](C(=C)CNC(=O)CCCCC(=O)NO)C[C@H]1C(=C)C` [Compound 18a, N^1-hydroxy-N^6-(2-((1R,3S,4S)-4-methyl-3-(prop-1-en-2-yl)-4-vinylcyclohexyl)allyl)adipamide], the melting point is 95.6 to 96.7 °C.
As to `C=C[C@]1(C)CC[C@@H](C(=C)CNC(=O)CCCCCC(=O)NO)C[C@H]1C(=C)C` [Compound 18b, N^1-hydroxy-N^7-(2-((1R,3S,4S)-4-methyl-3-(prop-1-en-2-yl)-4-vinylcyclohexyl)allyl)heptanediamide], the melting point fell in the range of 55.7 to 58.1 °C. For the same compound, in the data set with WSU-DLCL-2 cells, the IC50 is 2080 ± 220 nM. In addition, the half-inhibitory concentration (IC50) with K562 cells is 5160 ± 130 nM. In addition, in the data set on HEL cells, the IC50 came out at 2160 ± 160 nM.
Compound `C=C[C@]1(C)CC[C@@H](C(=C)CNC(=O)CCCCCCC(=O)NO)C[C@H]1C(=C)C` [Compound 18c, N^1-hydroxy-N^8-(2-((1R,3S,4S)-4-methyl-3-(prop-1-en-2-yl)-4-vinylcyclohexyl)allyl)octanediamide] displayed a melting point of 58.6 to 59.3 °C.
Consider `C=C[C@]1(C)CC[C@@H](C(=C)CN2CCN(C(=O)CCCCC(=O)NO)CC2)C[C@H]1C(=C)C` [Compound 18d, N-hydroxy-6–(4-(2-((1R,3S,4S)-4-methyl-3-(prop-1-en-2-yl)-4-vinylcyclohexyl)allyl)piperazin-1-yl)-6-oxohexanamide], for which the half-maximal inhibitory concentration (IC50) against HDAC6 is 532 ± 27 nM; at HDAC1, 900 ± 78 nM.
In turn, `C=C[C@]1(C)CC[C@@H](C(=C)CN2CCN(C(=O)CCCCCC(=O)NO)CC2)C[C@H]1C(=C)C` [Compound 18e, N-hydroxy-7–(4-(2-((1R,3S,4S)-4-methyl-3-(prop-1-en-2-yl)-4-vinylcyclohexyl)allyl)piperazin-1-yl)-7-oxoheptanamide] registered a melting point of 126.7 to 127.5 °C.
Compound `C=C[C@]1(C)CC[C@@H](C(=C)CN2CCN(C(=O)CCCCCCC(=O)NO)CC2)C[C@H]1C(=C)C` [Compound 18f, N-hydroxy-8–(4-(2-((1R,3S,4S)-4-methyl-3-(prop-1-en-2-yl)-4-vinylcyclohexyl)allyl)piperazin-1-yl)-8-oxooctanamide] came in with a melting point of 144.3 to 144.9 °C. Moreover, half-maximal inhibition against HDAC6 (IC50) required 32 ± 9 nM. This compound also came in with an IC50 against HDAC1 of 81 ± 8 nM.
In the case of `C=C[C@]1(C)CC[C@@H](C(=C)CNC(=O)CCCCC(=O)NO)C[C@H]1C(=C)Cn1cccn1` [Compound 27a, N^1-(2-((1R,3R,4S)-3–(3-(1H-pyrazol-1-yl)prop-1-en-2-yl)-4-methyl-4-vinylcyclohexyl)allyl)-N^6-hydroxyadipamide], the melting point was 65.6 to 66.8 °C. Besides, inhibition against HDAC6 was half-maximal at 261 ± 4 nM (IC50). The half-inhibitory concentration (IC50) on HDAC1 came out at 879 ± 56 nM.
Turning to `C=C[C@]1(C)CC[C@@H](C(=C)CNC(=O)CCCCCC(=O)NO)C[C@H]1C(=C)Cn1cccn1` [Compound 27b, N^1-(2-((1R,3R,4S)-3–(3-(1H-pyrazol-1-yl)prop-1-en-2-yl)-4-methyl-4-vinylcyclohexyl)allyl)-N^7-hydroxyheptanediamide], the melting point lay within 47.3 to 49 °C.
With `C=C[C@]1(C)CC[C@@H](C(=C)CNC(=O)CCCCCCC(=O)NO)C[C@H]1C(=C)Cn1cccn1` [Compound 27c, N^1-(2-((1R,3R,4S)-3–(3-(1H-pyrazol-1-yl)prop-1-en-2-yl)-4-methyl-4-vinylcyclohexyl)allyl)-N^8-hydroxyoctanediamide], the melting point fell in the range of 54.7 to 55.9 °C. Further, the half-maximal inhibitory concentration (IC50) in the data set with WSU-DLCL-2 cells is 2270 ± 300 nM. In the data set with K562 cells, the half-inhibitory concentration (IC50) turned out to be 5600 ± 40 nM. The concentration for half-maximal inhibition (IC50) in the data set with HEL cells came to 6050 ± 240 nM.
In turn, `C=C[C@]1(C)CC[C@@H](C(=C)CN2CCN(C(=O)CCCCC(=O)NO)CC2)C[C@H]1C(=C)Cn1cccn1` [Compound 27d, 6–(4-(2-((1R,3R,4S)-3–(3-(1H-pyrazol-1-yl)prop-1-en-2-yl)-4-methyl-4-vinylcyclohexyl)allyl)piperazin-1-yl)-N-hydroxy-6-oxohexanamide] came in with a melting point of 71.7 to 72.2 °C.
As for `C=C[C@]1(C)CC[C@@H](C(=C)CN2CCN(C(=O)CCCCCC(=O)NO)CC2)C[C@H]1C(=C)Cn1cccn1` [Compound 27e, 7–(4-(2-((1R,3R,4S)-3–(3-(1H-pyrazol-1-yl)prop-1-en-2-yl)-4-methyl-4-vinylcyclohexyl)allyl)piperazin-1-yl)-N-hydroxy-7-oxoheptanamide], the melting point is 55.3 to 56.7 °C. The compound also came in with a 50% inhibitory concentration (IC50) against HDAC1 of 189 ± 26 nM.
Turning to `C=C[C@]1(C)CC[C@@H](C(=C)CN2CCN(Cc3ccc(C(=O)NO)cc3)CC2)C[C@H]1C(=C)Cn1cccn1` [Compound 34], the melting point fell in the range of 111.8 to 112.6 °C.
For the compound `C=C[C@]1(C)CC[C@@H](C(=C)Cn2cccn2)C[C@H]1C(=C)CNC(=O)CCCCC(=O)NO` [Compound 39a, N^1-(2-((1R,2S,5R)-5–(3-(1H-pyrazol-1-yl)prop-1-en-2-yl)-2-methyl-2-vinylcyclohexyl)allyl)-N^6-hydroxyadipamide], the melting point is 61.7 to 63.3 °C. For the same compound, the IC50 on HDAC6 came out at 398 ± 41 nM. Moreover, the IC50 against HDAC1 was found to be 986 ± 13 nM.
For `C=C[C@]1(C)CC[C@@H](C(=C)Cn2cccn2)C[C@H]1C(=C)CNC(=O)CCCCCC(=O)NO` [Compound 39b, N^1-(2-((1R,2S,5R)-5–(3-(1H-pyrazol-1-yl)prop-1-en-2-yl)-2-methyl-2-vinylcyclohexyl)allyl)-N^7-hydroxyheptanediamide], in that order: 63.8 to 64.9 °C, 20 ± 7 nM and 136 ± 33 nM.
Turning to `C=C[C@]1(C)CC[C@@H](C(=C)Cn2cccn2)C[C@H]1C(=C)CNC(=O)CCCCCCC(=O)NO` [Compound 39c, N^1-(2-((1R,2S,5R)-5–(3-(1H-pyrazol-1-yl)prop-1-en-2-yl)-2-methyl-2-vinylcyclohexyl)allyl)-N^8-hydroxyoctanediamide], the melting point is 55.4 to 57.9 °C.
The compound `C=C[C@]1(C)CC[C@@H](C(=C)Cn2cccn2)C[C@H]1C(=C)CN1CCN(C(=O)CCCCC(=O)NO)CC1` [Compound 39d, 6–(4-(2-((1R,2S,5R)-5–(3-(1H-pyrazol-1-yl)prop-1-en-2-yl)-2-methyl-2-vinylcyclohexyl)allyl)piperazin-1-yl)-N-hydroxy-6-oxohexanamide] yielded a melting point of 100.2 to 102.3 °C. On HDAC6, this compound displayed an IC50 of over 5000 nM. This compound registered a concentration for half-maximal inhibition (IC50) at HDAC1 of over 5000 nM.
For the compound `C=C[C@]1(C)CC[C@@H](C(=C)Cn2cccn2)C[C@H]1C(=C)CN1CCN(C(=O)CCCCCC(=O)NO)CC1` [Compound 39e, 7–(4-(2-((1R,2S,5R)-5–(3-(1H-pyrazol-1-yl)prop-1-en-2-yl)-2-methyl-2-vinylcyclohexyl)allyl)piperazin-1-yl)-N-hydroxy-7-oxoheptanamide], the melting point is 60.2 to 61.3 °C.
`C=C[C@]1(C)CC[C@@H](C(=C)Cn2cccn2)C[C@H]1C(=C)CNC(=O)CCCCCCC(=O)Nc1ccccc1N` [Compound 41]: the results for the IC50 on HDAC6 and against HDAC1 were over 5000 nM and 2130 ± 294 nM, respectively.
`C=C[C@]1(C)CC[C@@H](C(=C)Cn2cccn2)C[C@H]1C(=C)CN1CCN(Cc2ccc(C(=O)NO)cc2)CC1` [Compound 43] had a melting point of 103.2 to 105.3 °C.
